Laboratory results: publication PMC9574860, “Chemical Toolkit for PARK7: Potent, Selective, and High-Throughput” (Journal of Medicinal Chemistry, 2022)
Screen size: about 7,900 compounds; about 400 (5.1%) showed an effect of 50% or more. The list shows a part of the results.

target: Parkinson's disease protein 7 (PARK7/DJ1) (human, UniProt Q99497); test: primary screen, percent inhibition; read as competition with a fluorescent probe by fluorescence polarization; higher = more effect of the substance; conditions: 100 µM
How it was run: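 Fluorescence-polarization probe displacement (JYQ-107, 20 nM final, 2 h) after 2 h preincubation of PARK7 (0.2 μM final) with each fragment at 100 μM final. Read-out ex/em 480/520 nm; remaining activity derived from FP signal loss relative to reference controls.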

Chain of Parkinson's disease protein 7 (PARK7/DJ1) (Q99497 whole entry, looked up, the tested form may be a part): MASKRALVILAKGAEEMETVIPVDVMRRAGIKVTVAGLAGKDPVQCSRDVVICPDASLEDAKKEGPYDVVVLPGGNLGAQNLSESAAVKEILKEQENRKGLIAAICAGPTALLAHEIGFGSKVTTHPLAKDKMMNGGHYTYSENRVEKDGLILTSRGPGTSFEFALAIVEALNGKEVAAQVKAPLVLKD

Structure (SMILES)	Inhibition %
N#CC=Cc1ccc(Cl)cc1	10.4%
C=CC(=O)N1CCCc2ccccc2CC1	10.2%
O=C(O)c1cccc(CS)c1	30.4%
C=CC(=O)N1CCC(n2cccc2)CC1	6.94%
C=CC(=O)N1CCOC(c2ccc(C(F)(F)F)cc2)C1 (centres unmarked)	1.86%
CCOC(=O)c1cnn2ccc(C#N)nc12	14.6%
COc1ccc(NS(=O)(=O)C=Cc2ccccc2)cn1	59.9%
O=C(CCl)N1CCC(C(=O)N2CCCCCC2)CC1	15.1%
CC(=O)Nc1ccc(SC2CCOC2=O)cc1 (centres unmarked)	12.7%
CN(C)CCOc1ccccc1B1OC(C)(C)C(C)(C)O1	6.97%
CCc1cnccc1C(=O)N1CCCC(C2OCCO2)C1 (centres unmarked)	12.5%
C=CCn1c(S)nc2ccccc2c1=O	5.07%
C=CC(=O)N1CCCC(c2nc(CC)cs2)C1 (centres unmarked)	13.4%
N#Cc1ccccc1NC(=O)CCCl	-0.986%
O=C(CCl)Nc1cccc(C(=O)O)c1	13.2%
O=C(N1CCC1c1ccccc1)n1ccnc1 (centres unmarked)	11.7%
O=C(N[C@H]1CC[C@@H](CS(=O)(=O)F)C1)c1cccs1 (racemic)	96.8%
CCOc1ccc(S(=O)(=O)n2ccc(C)n2)c(C)c1C	5.4%
O=C1CCC(=O)N1CCSc1ccc2ccccc2n1	-0.573%
C=CC(=O)N1CCCC1(C)Cc1cccs1 (centres unmarked)	2.19%
CC(C)(C)OC(=O)N1CC[C@]2(B3OC(C)(C)C(C)(C)O3)C[C@@H]2C1 (racemic)	1.09%
CS(=O)(=O)Oc1ccc(C(F)(F)F)cc1	6.55%
CC1(C)OB(c2cnn(-c3ccncc3)c2)OC1(C)C	6.06%
C=CC(=O)NCC1CCC(C(=O)N(C)C)O1 (centres unmarked)	6.66%
O=C(Oc1ccc(Cl)c2cccnc12)N1CCOCC1	11.1%

Structure (SMILES)	Inhibition %
Cc1cc(C=C(C#N)C(=O)NC2CC2)c(C)n1C1CC1	9.94%
C=C(Cl)CSc1nc(N)cc(N)n1	18.5%
Cn1nccc1C12CCOCC1O2 (centres unmarked)	9.22%
C=CC(=O)N1CCC(Cc2ccc(OC)cc2)CC1	8.81%
OC(CC1CO1)c1ccccc1 (centres unmarked)	6.87%
N#Cc1ccc(N2CCCC(c3nccs3)C2)cn1 (centres unmarked)	-0.784%
CC(C)(C)OC(=O)N1CCCC(S(=O)(=O)F)C1 (centres unmarked)	10.7%
CC1(C)OB(c2cccc(Cl)c2)OC1(C)C	-3.11%
C=CC(=O)Nc1ccc2c(c1)OCCCO2	3.17%
C=CC(=O)NC1CCc2nc(CC)nn2C1 (centres unmarked)	10.4%
N#Cc1ccc(S)nc1	31.9%
COc1ccc(S(=O)(=O)n2ccc(C)n2)cc1C	2.32%
C=CC(=O)NC1CCCc2nc(C)ncc21 (centres unmarked)	2.84%
C=CCNC(=O)C(C#N)=Cc1cccc(C)c1	10.9%
Cl.O=C(CCl)Nc1nc(CN2CCCCC2)cs1	3.25%
C=CC(=O)NC1CCN(C(C)(C)C)C1=O (centres unmarked)	4.3%
O=C(CCl)NCc1ccc(OC(F)(F)F)cc1	5.21%
C=CC(=O)N1CCN(CC(C)C)C(=O)C1	0.18%
Cc1csc2c(=O)n(CC3OCCO3)cnc12	8.19%
Cl.O=S1(=O)C=CC(NCc2ccccc2)C1 (centres unmarked)	9.33%
COC(=O)c1ccc(NC(=O)CCl)cc1	60.9%
C=CC(=O)Nc1cnn(-c2ccncc2)c1C(F)F	16.6%
C=CC(=O)NC1CCCOc2c(Cl)cccc21 (centres unmarked)	5.57%
C=CC(=O)N1CCC(n2cc(C)cn2)CC1	10.4%
CCOC1CC(Nc2ccc(C#N)nc2)C12CCC2 (centres unmarked)	1.47%

Structure (SMILES)	Inhibition %
NC(=O)Nc1ccc(C(=O)CCl)cc1	89.6%
Cc1noc(C(C)NC(=O)Cc2ccc(S(=O)(=O)F)cc2)n1 (centres unmarked)	41.8%
COc1cc(C)c(S(=O)(=O)n2nc(C)cc2C)cc1C	2.71%
C=CC(=O)N[C@H]1C[C@H](SC)C1	8.6%
Cc1nc(C=CC(=O)N2CC(C)NC(C)C2)cs1 (centres unmarked)	14.8%
C=CC(=O)N1CCC(C(N)=O)(c2ccccc2)CC1	6.37%
CC1CC(Sc2nncn2C(C)C)C(=O)O1 (centres unmarked)	2.25%
C=CC(=O)NCc1ccc(Cn2cccn2)cc1	5.08%
C=CC(=O)NCCc1nc(C)oc1C	8.23%
CN(C)C(=O)Oc1ccc(OC(=O)N(C)C)cc1	1.92%
CC1CCN(C(N)=C(C#N)C(=O)Nc2ccccc2)CC1	7.29%
C=C(C#N)C(O)c1cccnc1 (centres unmarked)	0.585%
C=CC(=O)NC1CCN(Cc2ccc(F)cc2)CC1	16%
C=CC(=O)NCCc1cscn1	5.76%
CC1(C)OB(c2cccc(F)c2C(F)(F)F)OC1(C)C	10.8%
C=CC(=O)N1CSCC1C(=O)N1CCCC1 (centres unmarked)	29.2%
C=CC(=O)N1CCc2cc(OCC)ccc2C1	17.1%
FC(F)(F)c1ccnc(S)n1	25.1%
CNc1cc(B2OC(C)(C)C(C)(C)O2)ccn1.Cl	6.33%
C=C(C)CN(CC)C(=O)Cn1cnc(C#N)n1	6.74%
C=CC(=O)N1CC(CC)OC2(CCOC2)C1 (centres unmarked)	0.956%
C=CC(=O)N1CCN(Cc2ccco2)CC1	5.39%
O=C1OCCC1N1CCC(c2nc3ccccc3o2)CC1 (centres unmarked)	4.11%
N#Cc1ccc(NC(=O)CN2CCSC2=O)cc1Cl	4.25%
O=S(=O)(F)c1cc(Br)ccc1Cl	88.4%

Structure (SMILES)	Inhibition %
C=CC(=O)N1CCC(Cn2ccnn2)CC1	3.98%
CC(C)(C)OC(=O)N1C2C=C(B3OC(C)(C)C(C)(C)O3)CC1CC2 (centres unmarked)	0%
N#Cc1ccc(N2CCC3(CCOC3)C2)cn1 (centres unmarked)	-4.97%
O=C(c1cccnc1S)N1CCC2(CCOC2)C1 (centres unmarked)	4.25%
Cc1nc2sccn2c1C=C(C#N)c1ccccn1	1.34%
O=C(CCl)Nc1nncs1	4.4%
C=CC(=O)N1CCOC2CCN(Cc3ccccc3)CC21 (centres unmarked)	5.11%
N#CSc1ccc(N2CCOCC2)cc1	8.87%
O=c1[nH]c(-c2cccs2)no1	3.67%
C=CC(=O)N1C[C@@H](C)[C@H](C(=O)N2CCOCC2)C1 (racemic)	5.41%
CC1CC(N(C)Cc2ccc3c(c2)OCO3)C(=O)O1 (centres unmarked)	3.52%
C=CC(=O)NCC1CCC2(CCC2)CO1 (centres unmarked)	5.32%
CC1(C)OB(c2ccc(N)cc2F)OC1(C)C	5.89%
CN(C)Cc1ccc(CNC(=O)CCl)cc1.Cl	13.8%
Cn1cc(C=CC(=O)N2CCc3ccccc3C2)cn1	11.8%
CCc1cccc(N(C#N)CCC(N)=O)c1	0.798%
Cc1cccc(NC(=O)N2CCCC23CCOC3=O)n1 (centres unmarked)	11.8%
O=C(CCl)NC(=O)NC12CC3CC(CC(C3)C1)C2	0.699%
C=CC(=O)N1CCN(c2ncnc3sc(C)cc23)CC1	0.554%
O=C(CCl)Nc1cc(C(F)(F)F)ccc1N1CCCC1	0.54%
O=C(O)c1ccc(SC2CCOC2=O)cc1 (centres unmarked)	2.85%
N#Cc1ncn(CC(=O)c2cccc(Cl)c2Cl)n1	7.31%
C=CC(=O)NCc1nc(C)c2ccccc2n1	-0.293%
C=CC(=O)N1CCN(C)C(=O)C1(C)C	11.1%
O=c1c2ccccc2nc(S)n1CCO	-0.125%

Structure (SMILES)	Inhibition %
C=CC(=O)Nc1ccc2nc(N3CCOCC3)oc2c1	5.38%
CC(C)n1cc(B2OC(C)(C)C(C)(C)O2)cn1	3.03%
C=CC(=O)N1CCC[C@@H]2O[C@H](c3ccccc3)C[C@@H]21 (racemic)	5.3%
O=C1C[C@H](NS(=O)(=O)c2cnc3ccsc3c2)CO1	5.74%
CCN(C(=O)Cn1cnc(C#N)n1)C1=CCCCC1	6.47%
C=CC(=O)N1CCOC2(CCc3ccccc32)C1 (centres unmarked)	3.26%
N#Cc1ccc2cc(N)ccc2n1	101%
O=C(CCl)c1cn(-c2ccc(F)cc2)nn1	5.02%
C=CC(=O)N1CC(C)(c2ccccc2F)C1	28.6%
CCN1C(=O)C(C)SC1=C(C#N)C(=O)NCc1ccco1 (centres unmarked)	0.0122%
O=C1SCCN1CC(=O)N1CCc2ccccc21	3.23%
C=CC(=O)NC(CO)c1ccsc1 (centres unmarked)	11%
C=CC(=O)NC(c1cnn(C)c1)C(F)(F)F (centres unmarked)	3.17%
Cc1nnc(CN(C#N)c2ccc(F)c(Cl)c2)o1	5.26%
Cc1cccc(C)c1N1C(=O)CN=C1S	1.33%
CC1(C)OB(c2ccc(CSc3ncn[nH]3)cc2)OC1(C)C	11.5%
Cc1ccc(OC(=O)N2CCOCC2)cc1	5.06%
O=C(OCc1ccccc1)N1CCCC2(CO2)C1 (centres unmarked)	5.34%
Cn1ncc(C2CC2)c1B1OC(C)(C)C(C)(C)O1	4.29%
CC1=NOC(=O)C1CC(=O)O (centres unmarked)	99%
C=CC(=O)N1CCC(C(=O)O)(c2ccc(C)cc2)CC1	7.61%
CCN1CCN(c2oc(C3CC3)nc2C#N)CC1	1.62%
